Measured values taken from the supplement of paper PMC11741623.
This is one part of the list. Interaction screen of human proteins with wild-type SARS-CoV-2 proteins by split-DHFR complementation in yeast, 1 µg/mL methotrexate. Value = fitness of the pair (three or more lineages) minus that of the viral protein without a human partner, on a scale set by negative (0) and fused positive (1) controls, mean of up to three cultures; higher = more likely to interact. Active = false discovery rate below 0.05 (one-sided t-test) in at least one culture. Nearly all pairs are not hits, and differences among them are mostly noise (correlation between cultures about 0.3); most hits were seen in one culture only. Human sequences are the Swiss-Prot entries looked up by gene name; the clone may be another isoform. NSP2 values were corrected by the authors for a growth advantage. Listed are human proteins with a hit and a random twelfth of the others.

B1: LGALS8, O00214 (protein)
chain: MMLSLNNLQNIIYNPVIPFVGTIPDQLDPGTLIVIRGHVPSDADRFQVDLQNGSSMKPRADVAFHFNPRFKRAGCIVCNTLINEKWGREEITYDTPFKREKSFEIVIMVLKDKFQVAVNGKHTLLYGHRIGPEKIDTLGIYGKVNIHSIGFSFSSDLQSTQASSLELTEISRENVPKSGTPQLRLPFAARLNTPMGPGRTVVVKGEVNANAKSFNVDLLAGKSKDIALHLNPRLNIKAFVRNSFLQESWGEEERNITSFPFSPGMYFEMIIYCDVREFKVAVNGVHSLEYKHRFKELSSIDTLEINGDIHLLEVRSW
B2: LIN28A, Q9H9Z2 (protein)
chain: MGSVSNQQFAGGCAKAAEEAPEEAPEDAARAADEPQLLHGAGICKWFNVRMGFGFLSMTARAGVALDPPVDVFVHQSKLHMEGFRSLKEGEAVEFTFKKSAKGLESIRVTGPGGVFCIGSERRPKGKSMQKRRSKGDRCYNCGGLDHHAKECKLPPQPKKCHFCQSISHMVASCPLKAQQGPSAQGKPTYFREEEEEIHSPTLLPEAQN

Target: SARS-CoV-2 M
Test: yeast fitness gain over the viral ORF with no human partner (scaled fitness); higher = more likely to interact
Method: (§1)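 Split mouse DHFR complementation in pooled diploid yeast: human ORFeome clones carry one fragment and viral ORFs the other; barcoded lineages compete in 1 µg/mL methotrexate and fitness is read by barcode sequencing in up to three cultures.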

Row | Binder | yeast fitness gain
1 | B1 | inactive: -0.0139
2 | B2 | inactive: 0.0532

Target: SARS-CoV-2 N
Test: as above
Method: as §1

Row | Binder | yeast fitness gain
3 | B1 | inactive: 0.065

Target: SARS-CoV-2 NSP1
Test: as above
Method: as §1

Row | Binder | yeast fitness gain
4 | B1 | inactive: 0.0889
5 | B2 | inactive: -0.0506

Target: SARS-CoV-2 NSP10
Test: as above
Method: as §1

Row | Binder | yeast fitness gain
6 | B1 | inactive: 0.00816
7 | B2 | inactive: -0.0996

Target: SARS-CoV-2 NSP12
Test: as above
Method: as §1

Row | Binder | yeast fitness gain
8 | B1 | inactive: 0.0305
9 | B2 | inactive: 0.0673

Target: SARS-CoV-2 NSP13
Test: as above
Method: as §1

Row | Binder | yeast fitness gain
10 | B1 | inactive: 0.032
11 | B2 | inactive: -0.0527

Target: SARS-CoV-2 NSP15
Test: as above
Method: as §1

Row | Binder | yeast fitness gain
12 | B1 | inactive: -0.0865
13 | B2 | inactive: 0.0154

Target: SARS-CoV-2 NSP2
Test: as above
Method: as §1

Row | Binder | yeast fitness gain
14 | B1 | inactive: -0.0879
15 | B2 | inactive: -0.0318

Target: SARS-CoV-2 NSP4
Test: as above
Method: as §1

Row | Binder | yeast fitness gain
16 | B1 | inactive: -0.0216

Target: SARS-CoV-2 NSP5
Test: as above
Method: as §1

Row | Binder | yeast fitness gain
17 | B1 | inactive: 0.0305
18 | B2 | inactive: 0.0439

Target: SARS-CoV-2 NSP7
Test: as above
Method: as §1

Row | Binder | yeast fitness gain
19 | B1 | inactive: 0.122
20 | B2 | inactive: 0.0319

Target: SARS-CoV-2 NSP8
Test: as above
Method: as §1

Row | Binder | yeast fitness gain
21 | B1 | inactive: 0.0257
22 | B2 | inactive: -0.0284

Target: SARS-CoV-2 NSP9
Test: as above
Method: as §1

Row | Binder | yeast fitness gain
23 | B1 | inactive: -0.0286

Target: SARS-CoV-2 ORF10
Test: as above
Method: as §1

Row | Binder | yeast fitness gain
24 | B1 | inactive: 0.108
25 | B2 | inactive: -0.0382

Target: SARS-CoV-2 ORF3A
Test: as above
Method: as §1

Row | Binder | yeast fitness gain
26 | B1 | inactive: -0.0819

Target: SARS-CoV-2 ORF3B
Test: as above
Method: as §1

Row | Binder | yeast fitness gain
27 | B1 | inactive: 0.0545
28 | B2 | inactive: 0.0261

Target: SARS-CoV-2 ORF6
Test: as above
Method: as §1

Row | Binder | yeast fitness gain
29 | B1 | inactive: 0.0157
30 | B2 | inactive: -0.0112

Target: SARS-CoV-2 ORF7A
Test: as above
Method: as §1

Row | Binder | yeast fitness gain
31 | B1 | inactive: 0.00745
32 | B2 | inactive: -0.0497

Target: SARS-CoV-2 ORF7B
Test: as above
Method: as §1

Row | Binder | yeast fitness gain
33 | B1 | inactive: -0.0176
34 | B2 | inactive: 0.000876

Target: SARS-CoV-2 ORF8
Test: as above
Method: as §1

Row | Binder | yeast fitness gain
35 | B1 | inactive: 0.0376
36 | B2 | inactive: 0.0389

Target: SARS-CoV-2 ORF9B
Test: as above
Method: as §1

Row | Binder | yeast fitness gain
37 | B1 | inactive: 0.00518
38 | B2 | inactive: -0.0224

Target: SARS-CoV-2 ORF9Bwu (the 73-codon ORF)
Test: as above
Method: as §1

Row | Binder | yeast fitness gain
39 | B1 | inactive: -0.0024
40 | B2 | inactive: 0.105

Target: SARS-CoV-2 S
Test: as above
Method: as §1

Row | Binder | yeast fitness gain
41 | B1 | inactive: 0.00121
42 | B2 | inactive: 0.0387

Target: SARS-CoV-2 NSP14
Test: as above
Method: as §1

Row | Binder | yeast fitness gain
43 | B2 | inactive: -0.351
